In the supplement of paper PMC10126150:
Sequences with one replicate were seen in a single cluster, so their values are uncertain.

Tested on: ATP
Assay: switch fluorescence ratio, 500 uM ATP over buffer (Cy3 cluster intensity, sum of 5 cycles each) (fold (ratio)); higher = stronger signal-on switching upon ATP binding; sequences stand for … in TCGTCGGCAGCGTCAGATGTGTATAAGAGACAGTTTTTTTTTTTTTTTTTTTTTTTTT…TC
Conditions: aptamer strand: ATP DNA aptamer (quencher-CACCTGGGGGAGTATTGCGGAGGAAGG + anchor), 100 nM annealed; ATP concentration: 500 uM; one replicate
Method in brief: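 For every switch-domain sequence, the fluorescence ratio is the mean of per-cluster values, each being summed target-cycle Cy3 intensity over summed buffer-cycle Cy3 intensity. Clusters outside 100-1000 RFU were excluded. On a modified Illumina MiSeq flow-cell, the Cy3-labelled switching-strand clusters were annealed to 100 nM quencher-labelled ATP aptamer, imaged in selection buffer and then after 15 min with 500 uM ATP at 22 °C. Five such cycles were run, with NaOH stripping and re-annealing between them.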
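Note: ATP exposure 15 min at 22 °C before imaging.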

Row | Sequence | switch fluorescence ratio
1 | CCAATCGCTC | 2.16
2 | CAGTTAGGCT | 1.03
3 | TTCGTAGGGG | 1.03
4 | TATGGTTCGG | 0.999
5 | CATCACTTAT | 1.05
6 | TTTTCATCAC | 1.02
7 | CGTGCCGTAT | 0.98
8 | ATCTTGGCAC | 1
9 | TCCGGCTAAG | 1.02
10 | ATAGCTGGTG | 1.01
11 | ATGGGTGAAC | 1.06
12 | TTGCATCCGG | 0.964
13 | TAGTTGGAAT | 0.996
14 | CAATAAAAGC | 1.01
15 | CTCTATATTC | 1.07
16 | GCTATCAGAG | 0.954
17 | AGTTGGCTAT | 0.99
18 | AGGGTCCTC | 1.07
19 | TGGACCGGCA | 1.02
20 | TCGACCACTC | 1.5
21 | CAAGAGCTGG | 1.01
22 | CGAGTCGGGC | 1.03
23 | TGGGGCAGAT | 1.02
24 | GGGCTTGTTG | 0.988
25 | GGTGCGTGTT | 1.07
26 | ATGACTCCCC | 1.21

Row | Sequence | switch fluorescence ratio
27 | GTTTGGATGA | 0.964
28 | AAGAGTAGGC | 1.02
29 | GGGTAAACAA | 1.01
30 | GATCCTTCCG | 2.35
31 | TAAAACGTTT | 0.944
32 | GGGGATCAAG | 1.02
33 | CACCTAAATA | 1.05
34 | GGAGCCGGTT | 0.996
35 | TATACGCCGC | 1.28
36 | CAATAGGAGG | 0.943
37 | TTTGATGACT | 1
38 | CAGACAGTCT | 1.05
39 | CTGGAGGCTA | 1.28
40 | GGACATTG | 0.999
41 | CCAGTGGACG | 1.01
42 | TTCCCTCT | 1.05
43 | TATTGTTTAC | 1.12
44 | ATACCTCAGA | 0.974
45 | GACCTGCCTG | 1.15
46 | GGAGTATGTG | 0.974
47 | ATATTTGTTG | 0.956
48 | CACGTAATAC | 2.39
49 | TCGAGCTCCT | 1.04
50 | ATTAGCACAA | 1.18
51 | CGGCGTGGTG | 0.979
52 | CCTTGAGTAG | 1.05

Row | Sequence | switch fluorescence ratio
53 | AAGGTCCGTT | 0.929
54 | TATTGGACGG | 1.1
55 | AACTACACGC | 1.32
56 | CAGTAGCGA | 5.22
57 | ATTGAACGAT | 1.02
58 | AGCTTGAATA | 0.941
59 | TTAATATGGG | 0.997
60 | TATGGAGTCA | 0.995
61 | CAAAGGTGTG | 1.01
62 | TGATTGCCCC | 0.99
63 | TATCTAGTGC | 1.01
64 | TCGCCGTCCG | 1.04
65 | GGGATATGCT | 1.01
66 | GCGAATGCAT | 1.05
67 | GCTTGAATG | 1.02
68 | AATGATTCAT | 1
69 | GATGCAGAAT | 0.983
70 | GACATCGAAG | 0.971
71 | TTAGGGCGTA | 0.985
72 | ACCAATCAGG | 0.988
73 | GGTCCAGTGG | 1.04
74 | TTCAACTAGT | 0.987
75 | TATGTCCCGC | 1.02
76 | CCCCGTGTCG | 0.943
77 | CTAAACAATG | 1.04
78 | GGGTTGCTTC | 0.953

Row | Sequence | switch fluorescence ratio
79 | GGTAAAACGT | 1
80 | GGGCATTTTC | 1.02
81 | CGAAATCTAG | 0.999
82 | AAAGCACGCG | 1.06
83 | AGTCGCGTAT | 0.998
84 | CCTGATTGTA | 0.954
85 | CGATCGGGCT | 0.991
86 | TTTCCCGCTG | 1.3
87 | ACTCAGGGGA | 1.13
88 | GTCCATGGGG | 1.02
89 | CGATATGGAT | 0.92
90 | TAATCGCAGA | 0.985
91 | TACTAGTCTG | 1.07
92 | AGGGTTCAAT | 1
93 | CTTTCCTTTA | 1.02
94 | ACAGAAAACA | 0.991
95 | AATAACGGGG | 1.02
96 | AGTCGAGGTG | 1
97 | ACCACGTAGT | 0.996
98 | GACATGGAGT | 0.976
99 | TCATGCTTAG | 0.989
100 | AGCTCGGCCT | 0.992
101 | GCTGCATGT | 1.02
102 | TCCATGGGTT | 0.994
103 | ATGGGTTAAC | 1.05
104 | AGGCGGAATG | 0.999

Row | Sequence | switch fluorescence ratio
105 | TAGCTCAGCC | 1
106 | TAACGTATGA | 1.1
107 | TGTAGGGATG | 0.976
108 | GCGGCACATG | 0.955
109 | ACAGCTGCGG | 0.975
110 | GGTGCTAAAA | 1
111 | GGTATGGTCC | 1.04
112 | ATGATGCAG | 1.01
113 | GTCTCTATTC | 1.03
114 | GGGAGTGACG | 1
115 | GCAATCGCGT | 1.02
116 | GCATGTATAC | 1.44
117 | CAGAGGCCTA | 1.02
118 | TAGCCCCGAG | 1.03
119 | CTGTCCCTGC | 0.976
120 | CAGGAGTAGG | 1.03
121 | TGACATAAGA | 1
122 | GAAGGTAGTG | 0.95
123 | GATTATAGA | 1.02
124 | GCCTGCTGTG | 1.02
125 | GGCTGACAGT | 0.957
126 | AATGCATCAC | 1.11
127 | GGTACGGTGC | 1.08
128 | CAAGGACAAA | 1
129 | GAGCATGGGG | 0.998
130 | ACGACTTTCA | 1

Row | Sequence | switch fluorescence ratio
131 | AACTGATAAG | 0.992
132 | TTCTTGGAGG | 0.959
133 | AGTCTAGG | 1
134 | AATCGTGAGT | 0.996
135 | CGTGCTGAGC | 1
136 | GATAACGTAG | 0.989
137 | AACCAGTCAG | 1.06
138 | CCAAGCTATT | 2.64
139 | TTCATGTGCG | 0.946
140 | AAGCCGATGT | 0.985
141 | ATAAAGATCG | 0.979
142 | TTTCTGCGA | 1.05
143 | TTCCGTTCTG | 0.986
144 | CCTTCGGGCT | 1.24
145 | CTAGAAGTCT | 1.02
146 | CCTAGAAGGT | 0.979
147 | TACCTTTCGG | 1.08
148 | AAGCGATGGG | 1.06
149 | CATTCGGTAA | 1.07
150 | CTTCGTTTTG | 1.02
151 | GTGCCGGAGT | 1.02
152 | ACCCGGCCAT | 1.06
153 | ATGCTAGTGC | 1.03
